Sequences and labels used below:
B1: GGCCAUA (DNA:RNA)
RNA: GGGAGACCGGAAUUCAGAUUGUCCGGCCAUAUUAAAUCCCGUCGUAGCCACCA
DNA 1: CAATCTGAATTCCGGTCTCCC
DNA 2: TGGTGGCTACGACGGGATT
B2: GACGCGU (DNA:RNA)
RNA: B1 RNA with G26A, C28G, A29C, U30G, A31U
DNA 1: CAATCTGAATTCCGGTCTCCC
DNA 2: TGGTGGCTACGACGGGATT
B3: UCCCUCG (DNA:RNA)
RNA: B1 RNA with G25U, G26C, A29U, U30C, A31G
DNA 1: CAATCTGAATTCCGGTCTCCC
DNA 2: TGGTGGCTACGACGGGATT
B4: CACUCCU (DNA:RNA)
RNA: B1 RNA with G25C, G26A, C28U, A29C, U30C, A31U
DNA 1: CAATCTGAATTCCGGTCTCCC
DNA 2: TGGTGGCTACGACGGGATT
B5: UCCAUGA (DNA:RNA)
RNA: B1 RNA with G25U, G26C, C28A, A29U, U30G
DNA 1: CAATCTGAATTCCGGTCTCCC
DNA 2: TGGTGGCTACGACGGGATT
B6: ACACUAC (DNA:RNA)
RNA: B1 RNA with G25A, G26C, C27A, A29U, U30A, A31C
DNA 1: CAATCTGAATTCCGGTCTCCC
DNA 2: TGGTGGCTACGACGGGATT
B7: GUAGUUA (DNA:RNA)
RNA: B1 RNA with G26U, C27A, C28G, A29U
DNA 1: CAATCTGAATTCCGGTCTCCC
DNA 2: TGGTGGCTACGACGGGATT
B8: GCGGUUC (DNA:RNA)
RNA: B1 RNA with G26C, C27G, C28G, A29U, A31C
DNA 1: CAATCTGAATTCCGGTCTCCC
DNA 2: TGGTGGCTACGACGGGATT
B9: GGACUUG (DNA:RNA)
RNA: B1 RNA with C27A, A29U, A31G
DNA 1: CAATCTGAATTCCGGTCTCCC
DNA 2: TGGTGGCTACGACGGGATT
B10: CUGGAAG (DNA:RNA)
RNA: B1 RNA with G25C, G26U, C27G, C28G, U30A, A31G
DNA 1: CAATCTGAATTCCGGTCTCCC
DNA 2: TGGTGGCTACGACGGGATT
B11: CUGUACC (DNA:RNA)
RNA: B1 RNA with G25C, G26U, C27G, C28U, U30C, A31C
DNA 1: CAATCTGAATTCCGGTCTCCC
DNA 2: TGGTGGCTACGACGGGATT
B12: UGCCUGG (DNA:RNA)
RNA: B1 RNA with G25U, A29U, U30G, A31G
DNA 1: CAATCTGAATTCCGGTCTCCC
DNA 2: TGGTGGCTACGACGGGATT
B13: CAGGAUG (DNA:RNA)
RNA: B1 RNA with G25C, G26A, C27G, C28G, A31G
DNA 1: CAATCTGAATTCCGGTCTCCC
DNA 2: TGGTGGCTACGACGGGATT
B14: UUUCGUG (DNA:RNA)
RNA: B1 RNA with G25U, G26U, C27U, A29G, A31G
DNA 1: CAATCTGAATTCCGGTCTCCC
DNA 2: TGGTGGCTACGACGGGATT
B15: CCAACGA (DNA:RNA)
RNA: B1 RNA with G25C, G26C, C27A, C28A, A29C, U30G
DNA 1: CAATCTGAATTCCGGTCTCCC
DNA 2: TGGTGGCTACGACGGGATT
B16: AUACCUG (DNA:RNA)
RNA: B1 RNA with G25A, G26U, C27A, A29C, A31G
DNA 1: CAATCTGAATTCCGGTCTCCC
DNA 2: TGGTGGCTACGACGGGATT
B17: CGGCCCU (DNA:RNA)
RNA: B1 RNA with G25C, C27G, A29C, U30C, A31U
DNA 1: CAATCTGAATTCCGGTCTCCC
DNA 2: TGGTGGCTACGACGGGATT
B18: CGGGUCC (DNA:RNA)
RNA: B1 RNA with G25C, C27G, C28G, A29U, U30C, A31C
DNA 1: CAATCTGAATTCCGGTCTCCC
DNA 2: TGGTGGCTACGACGGGATT
B19: GUGGUCC (DNA:RNA)
RNA: B1 RNA with G26U, C27G, C28G, A29U, U30C, A31C
DNA 1: CAATCTGAATTCCGGTCTCCC
DNA 2: TGGTGGCTACGACGGGATT
B20: UGACAGU (DNA:RNA)
RNA: B1 RNA with G25U, C27A, U30G, A31U
DNA 1: CAATCTGAATTCCGGTCTCCC
DNA 2: TGGTGGCTACGACGGGATT
B21: CCAUUGU (DNA:RNA)
RNA: GGGAGACCGGAAUUCAGAUUGUCCCCAUUGUUUAAAUCCCGUCGUAGCCACCA
DNA 1: CAATCTGAATTCCGGTCTCCC
DNA 2: TGGTGGCTACGACGGGATT
B22: GACGUAC (DNA:RNA)
RNA: B1 RNA with G26A, C28G, A29U, U30A, A31C
DNA 1: CAATCTGAATTCCGGTCTCCC
DNA 2: TGGTGGCTACGACGGGATT
B23: GGACUGG (DNA:RNA)
RNA: B21 RNA with C25G, C26G, U28C, U31G
DNA 1: CAATCTGAATTCCGGTCTCCC
DNA 2: TGGTGGCTACGACGGGATT
B24: GUCAGUU (DNA:RNA)
RNA: B1 RNA with G26U, C28A, A29G, A31U
DNA 1: CAATCTGAATTCCGGTCTCCC
DNA 2: TGGTGGCTACGACGGGATT
B25: CAUCGGU (DNA:RNA)
RNA: B21 RNA with C26A, A27U, U28C, U29G
DNA 1: CAATCTGAATTCCGGTCTCCC
DNA 2: TGGTGGCTACGACGGGATT
B26: UCUGCAG (DNA:RNA)
RNA: B21 RNA with C25U, A27U, U28G, U29C, G30A, U31G
DNA 1: CAATCTGAATTCCGGTCTCCC
DNA 2: TGGTGGCTACGACGGGATT
B27: ACCAUGC (DNA:RNA)
RNA: B21 RNA with C25A, A27C, U28A, U31C
DNA 1: CAATCTGAATTCCGGTCTCCC
DNA 2: TGGTGGCTACGACGGGATT
B28: UCUUGAC (DNA:RNA)
RNA: B21 RNA with C25U, A27U, U29G, G30A, U31C
DNA 1: CAATCTGAATTCCGGTCTCCC
DNA 2: TGGTGGCTACGACGGGATT
B29: GCGGAGA (DNA:RNA)
RNA: B1 RNA with G26C, C27G, C28G, U30G
DNA 1: CAATCTGAATTCCGGTCTCCC
DNA 2: TGGTGGCTACGACGGGATT
B30: CAUAGGG (DNA:RNA)
RNA: B21 RNA with C26A, A27U, U28A, U29G, U31G
DNA 1: CAATCTGAATTCCGGTCTCCC
DNA 2: TGGTGGCTACGACGGGATT
B31: UAUUCGC (DNA:RNA)
RNA: B21 RNA with C25U, C26A, A27U, U29C, U31C
DNA 1: CAATCTGAATTCCGGTCTCCC
DNA 2: TGGTGGCTACGACGGGATT

The source of these data is publication PMC9911399, “Two distinct binding modes provide the RNA-binding protein RbFox with extraordinary sequence specificity”.

Where a chain is given by its changes, count along the chain named. Some of the results follow.

In the test the target is T1, RBFOX1 RRM (Homo sapiens, UniProt Q9NWB1 109-208).
T1 sequence: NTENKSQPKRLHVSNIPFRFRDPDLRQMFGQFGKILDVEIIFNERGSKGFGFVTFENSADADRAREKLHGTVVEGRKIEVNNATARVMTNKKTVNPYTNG
Description: EMSA; HiTS-Eq, 1 nM pool, 10 min; buffer printed only for the single-RNA assays: 10 mM Tris pH 7.5, 150 mM NaCl, 3.4 mM EDTA, 0.001% NP-40, 30 C. As to conditions: tags: His6 N-terminal (pET28a); label: 5' 32P. The essentials: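 Purified RbFox RRM, wild type or mutant, was incubated for 10 min in 50 µL with 1 nM of a 5′-radiolabelled RNA pool carrying 7 randomized nucleotides, whose flanks were annealed to DNA oligonucleotides, over a series of increasing protein concentrations. Unbound RNA was resolved on 8% native PAGE, cut out, reverse-transcribed, barcoded by PCR and sequenced on an Illumina HiSeq 2500. Relative association constants were derived from changes in read counts for each RNA species versus the control reaction and normalised to the cognate motif.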
For B1, the binding signal was 0.0068 KA relative to UGCAUGU.

On to B2, for which the binding signal is 0.0242 KA relative to UGCAUGU.

In the case of B3, the binding signal was 0.00265 KA relative to UGCAUGU.

For B4, the binding signal was 0.00314 KA relative to UGCAUGU.

For B5, the binding signal was 0.00922 KA relative to UGCAUGU.

Turning to B6, the binding signal is 0.000282 KA relative to UGCAUGU.

For the molecule B7, the binding signal is 0.00751 KA relative to UGCAUGU.

With B8, the binding signal is 0.0202 KA relative to UGCAUGU.

Turning to B9, the binding signal is 0.0273 KA relative to UGCAUGU.

On to B10, for which the binding signal was 0.0188 KA relative to UGCAUGU.

For B11, the binding signal is 0.00377 KA relative to UGCAUGU.

With B12, the binding signal is 0.0474 KA relative to UGCAUGU.

With B13, the binding signal was 0.0128 KA relative to UGCAUGU.

With B14, the binding signal is 0.0207 KA relative to UGCAUGU.

In the case of B15, the binding signal was 0.00896 KA relative to UGCAUGU.

For the molecule B16, the binding signal is 0.00861 KA relative to UGCAUGU.

Regarding B17, the binding signal was 0.00901 KA relative to UGCAUGU.

Regarding B18, the binding signal is 0.0159 KA relative to UGCAUGU.

For the molecule B19, the binding signal was 0.0226 KA relative to UGCAUGU.

With B20, the binding signal was 0.0198 KA relative to UGCAUGU.

As for B21, the binding signal is 0.00905 KA relative to UGCAUGU.

Take B22: the binding signal was 0.0104 KA relative to UGCAUGU.

Turning to B23, the binding signal was 0.0274 KA relative to UGCAUGU.

For B24, the binding signal was 0.00927 KA relative to UGCAUGU.

Regarding B25, the binding signal was 0.0084 KA relative to UGCAUGU.

Take B26: the binding signal was 0.0203 KA relative to UGCAUGU.

Take B27: the binding signal is 0.00513 KA relative to UGCAUGU.

For the molecule B28, the binding signal is 0.015 KA relative to UGCAUGU.

Turning to B29, the binding signal was 0.0115 KA relative to UGCAUGU.

As for B30, the binding signal was 0.00214 KA relative to UGCAUGU.

Take B31: the binding signal was 0.0167 KA relative to UGCAUGU.
